According to paper PMC4336329 (PLoS ONE, 2015):
In all, about 310,000 compounds went through this assay and about 14,000 (4.5%) showed an effect of 50% or more. Effects have a minus sign here. Some of the results follow.

target: human ether-à-go-go-related gene (hERG) potassium channel (human, UniProt Q12809); test: primary screen, population patch clamp on CHO cells stably expressing hERG
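Note: peak tail current of the secondary pulse compared with the same well before compound.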

Chain of human ether-à-go-go-related gene (hERG) potassium channel (Q12809 whole entry, looked up): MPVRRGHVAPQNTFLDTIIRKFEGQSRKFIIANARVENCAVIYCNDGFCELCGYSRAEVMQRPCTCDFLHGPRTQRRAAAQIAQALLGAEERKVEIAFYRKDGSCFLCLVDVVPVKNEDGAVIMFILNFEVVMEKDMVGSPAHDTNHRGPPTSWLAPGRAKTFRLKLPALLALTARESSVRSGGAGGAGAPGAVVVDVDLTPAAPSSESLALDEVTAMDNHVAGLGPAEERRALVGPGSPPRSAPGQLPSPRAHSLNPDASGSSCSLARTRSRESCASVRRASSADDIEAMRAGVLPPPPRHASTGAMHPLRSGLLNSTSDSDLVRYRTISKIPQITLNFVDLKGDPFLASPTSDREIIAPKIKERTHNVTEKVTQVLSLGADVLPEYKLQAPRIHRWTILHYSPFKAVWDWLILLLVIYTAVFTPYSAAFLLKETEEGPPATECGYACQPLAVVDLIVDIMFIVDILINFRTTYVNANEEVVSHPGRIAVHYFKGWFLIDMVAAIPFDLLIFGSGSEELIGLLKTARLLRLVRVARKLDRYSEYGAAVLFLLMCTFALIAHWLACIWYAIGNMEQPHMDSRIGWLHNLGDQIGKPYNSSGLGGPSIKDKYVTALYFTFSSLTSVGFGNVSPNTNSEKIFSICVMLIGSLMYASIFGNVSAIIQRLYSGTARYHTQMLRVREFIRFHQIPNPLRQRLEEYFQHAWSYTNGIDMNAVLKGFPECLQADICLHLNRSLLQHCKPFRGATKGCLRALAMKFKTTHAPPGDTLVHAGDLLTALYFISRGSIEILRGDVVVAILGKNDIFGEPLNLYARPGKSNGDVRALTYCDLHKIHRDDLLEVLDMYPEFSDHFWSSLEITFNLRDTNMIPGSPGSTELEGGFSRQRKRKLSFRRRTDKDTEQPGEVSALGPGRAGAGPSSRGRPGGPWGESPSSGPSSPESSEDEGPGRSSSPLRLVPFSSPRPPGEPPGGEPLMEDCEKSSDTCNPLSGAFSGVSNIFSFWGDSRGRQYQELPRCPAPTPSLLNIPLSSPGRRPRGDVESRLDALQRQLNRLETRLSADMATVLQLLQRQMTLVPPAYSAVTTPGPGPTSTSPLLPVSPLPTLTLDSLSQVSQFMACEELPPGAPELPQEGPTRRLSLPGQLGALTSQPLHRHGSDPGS

Row | SMILES | hERG current change (%, negative = inhibition) at 10uM
1 | COC(=O)c1sccc1NC(=S)N1CCN(c2cc(C)ccc2C)CC1 | 20.2%
2 | COc1cccc(CNCC(O)(c2ccc(Cl)cc2)c2ccc(Cl)cc2)c1 | -12.2%
3 | O=C(Nc1nc2c(s1)CCCC2)c1cc(-c2ccc3c(c2)OCO3)nc2ccccc12 | 6.66%
4 | Cc1cccc(N2C(=O)N3[C@@H]4c5ccccc5OC[C@@H]4[C@@H](c4ccccc4)[C@@]3(C)C2=O)c1 | 12.8%
5 | COCCN(CC(=O)Oc1ccccc1P(=O)(OC)OC)Cc1ccccc1 | 7.73%
6 | COc1ccccc1CNC(=O)C1=C(C)C(=O)OC12CCC(C)CC2 (stereo not drawn) | -2.21%
7 | CSc1ccc(/C=N/n2c(COc3ccccc3)n[nH]c2=S)cc1 | 21.6%
8 | CC(C)(CNC(=O)CC1C(=O)NCCN1Cc1cccc(F)c1F)N1CCOCC1 (stereo not drawn) | 29%
9 | O=C(O)c1cn(Cc2ccccc2Cl)c2ccc(S(=O)(=O)N3CCOCC3)cc2c1=O | -12.1%
10 | COc1ccc(C2NC(=O)CCC2[N+](=O)[O-])c(OC)c1 (stereo not drawn) | 1.25%
11 | C#Cc1ccc([C@H]2C=C(C(=O)NCc3nc4ccccc4[nH]3)O[C@@H](OCC)[C@@H]2CCCO)cc1 | -21.9%
12 | Cc1cs/c(=N\N=C\c2ccccc2)n1Cc1ccco1 | 4.35%
13 | COCCNC(=O)CC(=O)N/N=C/c1cccc(C(=O)OC)c1 | 7.31%
14 | CCOc1ccc(NC(=O)CN(C)C(=O)c2cccnc2Sc2ccccc2Cl)cc1OCC | -8.63%
15 | CN(C)CCN(C(=O)C1CCCCC1)c1nc2cc3c(cc2s1)OCO3.Cl | -9.7%
16 | COc1ccc(C)cc1S(=O)(=O)N1CCC2(CC1)OCCN2S(=O)(=O)c1ccccc1 | 15.3%
17 | Cc1ccccc1-c1nc(CS(=O)(=O)CC(=O)NCCCN2CCN(C)CC2)c(C)o1 | -0.595%
18 | O=C(COC(=O)c1cc([N+](=O)[O-])ccc1N1CCOCC1)NC1CCS(=O)(=O)C1 (stereo not drawn) | 11.9%
19 | COc1ccccc1NC(=O)c1ccc(COc2ccccc2OC)cc1 | 10%
20 | Cc1ccnc2c1NC(=O)c1cccnc1N2C1CC1 | -2.19%
21 | CCC(=O)c1ccc(OCC(O)CN2CCN(c3ccccn3)CC2)cc1 (stereo not drawn) | -34%
22 | O=C(NC1CC2CCC(C1)N2Cc1ccccc1)c1ccccc1Br (stereo not drawn) | -20.1%
23 | O=C(c1ccccc1NS(=O)(=O)c1cccc([N+](=O)[O-])c1)N1CCOCC1 | -9.85%
24 | Cc1ccc(C(=O)COC(=O)C(C)N2C(=O)C3C4C=CC(C4)C3C2=O)cc1 (stereo not drawn) | -1.78%
25 | CCCN(CCC)CCCNS(=O)(=O)c1ccc2c(c1)oc(=O)n2C | 3.44%
26 | O=C(COc1ccccc1F)NNC(=O)c1cccc(-n2cccc2)c1 | 5.68%
27 | O=C(c1ccco1)N1CCN(C(=O)C2CCN(S(=O)(=O)c3cnc[nH]3)CC2)CC1 | 13.6%

Row | SMILES | hERG current change (%, negative = inhibition) at 10uM
28 | COc1cc(/C=C/c2ccc3cccc(OC)c3n2)c(OC(C)=O)c([N+](=O)[O-])c1 | 2.34%
29 | Cc1nn(-c2ccccc2)c(Cl)c1C1C(C#N)=C(N)Oc2c1c(=O)oc1ccccc21 (stereo not drawn) | 6.87%
30 | O=C(CSc1ncccn1)NCCC1=CCCCC1 | -11.3%
31 | CCOC(=O)c1cc(=O)cc(C(=O)OCC)o1 | 6.87%
32 | CC1CN(S(=O)(=O)c2cccc(C(=O)Nc3ccccc3N3CCCC3)c2)CC(C)O1 (stereo not drawn) | -45.3%
33 | COc1ccc(S(=O)(=O)Nc2cccc(-c3ccc(N4CCCCCC4)nn3)c2)cc1OC | 7.72%
34 | CC(NC(=O)CCNC(=O)c1ccc(Br)cc1)c1ccc(S(N)(=O)=O)cc1 (stereo not drawn) | 15.3%
35 | COc1cccc(C2Nc3c(F)cc(Br)cc3C3C=CCC32)c1OC (stereo not drawn) | 9.51%
36 | CCOC(=O)N=Nc1c(O)n(C)c2ccccc12 | -7.81%
37 | COc1ccccc1CN1C[C@@H]2C[C@@H](c3ccc4nsnc4c3)N3CCC[C@@]23C1=O | -22.6%
38 | O=C(/C=C/c1ccc(Br)cc1)NC(=S)N1C[C@H]2C[C@H](C1)c1cccc(=O)n1C2 | -57.9%
39 | CN(C)c1ccc(NC(=O)c2ccc(N3CCOCC3)nc2)cc1 | 3.42%
40 | COc1cccc(C(C(=O)NC2CCCC2)N(Cc2ccccc2OC)C(=O)c2ccco2)c1 (stereo not drawn) | -0.597%
41 | CCOC(=O)CC(=O)c1sc2c(c1N)c(=O)[nH]c(=O)n2-c1ccc(OC)cc1 | 15.2%
42 | O=S1(=O)NC(=NC2CCCCCC2)c2ccccc21 | -3.31%
43 | CCOC(=O)[C@@H]1[C@H]2COc3ccccc3[C@@H]2N2C(=O)N(c3cccc(Cl)c3)C(=O)[C@]12C | -14.2%
44 | CC1=CC(C)(C)[N+](C)(C)c2ccccc21.[I-] | 55.3%
45 | COC(=O)C1CCN(C(=O)c2cc(S(=O)(=O)N3CCCCC3)ccc2Cl)CC1 | -7.02%
46 | Cc1c(Cl)cccc1NC(=O)CSc1sc2c(O)cc(=O)[nH]c2c1C#N | -2.45%
47 | CCOC(=O)c1sc(NC(=S)NC(=O)c2ccccc2)nc1C | 7.84%
48 | Cc1cc(C(=O)CSc2nnc(C3CC3)n2C2CC2)c(C)n1C(C)C | -0.454%
49 | Cn1c(/C=C/c2ccccc2[N+](=O)[O-])nc2ccccc2c1=O | 5%
50 | Cc1ccc(S(=O)(=O)N2CCOCC2)cc1-c1n[nH]c(=S)n1-c1ccccc1 | 23.2%
51 | CC(=O)Oc1ccc2c(c1)cc(C)n2C | -5.62%
52 | Cc1ccc(C)c(NC(=O)COC(=O)CNC(=O)C2CCCCC2)c1 | -12.9%
53 | COC(=O)C1=C(C)Nc2ccc(C)cc2S1 | -4.56%
54 | Cc1occc1C(=O)N/N=C/C(Br)=C\c1ccccc1 | 7.98%
